# Measured values as given in PubChem BioAssay AID2676 (National Center for Advancing Translational Sciences (NCATS), 2010).
# About 1,100 (0.3%) of roughly 370,000 compounds were called active. Inconclusive means that the source gave no clear call. Such entries were picked first, then a sample of the others. Calls come from the whole dose curve; as a rule, active = well fitted activation curve with a large enough effect; inconclusive = small, poorly fitted or top-dose-only effect; inactive = flat fitted curve, though single readings scatter. A potency beside an inconclusive call is a rough fit, not a confirmed value.
# Molecular target: Relaxin receptor 1 (Homo sapiens) (UniProt Q9HBX9)
# Test: qHTS Assay for Agonists of the Relaxin Receptor RXFP1; note: nearly all actives have a fitted effect of over 60% in size
# Conditions: HEK293T-RXFP1 cAMP TR-FRET, 30 min; series mostly up to 57.5 µM; activation: at the top concentration
# Outline: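 HEK293T cells stably expressing RXFP1 were pretreated with the PDE4 inhibitor Ro 20174, exposed to compounds for 30 min at 37C, lysed, and cAMP was read by TR-FRET. Data normalized to buffer (basal) and 29 nM porcine relaxin (100%).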
# % is set by controls: 0 for no effect and ±100 for the full control effect; potency is the fitted concentration of half-maximal effect; tags give direction and shape of the fitted curve.
# Chain of UniProt Q9HBX9 (Q9HBX9 whole entry, looked up): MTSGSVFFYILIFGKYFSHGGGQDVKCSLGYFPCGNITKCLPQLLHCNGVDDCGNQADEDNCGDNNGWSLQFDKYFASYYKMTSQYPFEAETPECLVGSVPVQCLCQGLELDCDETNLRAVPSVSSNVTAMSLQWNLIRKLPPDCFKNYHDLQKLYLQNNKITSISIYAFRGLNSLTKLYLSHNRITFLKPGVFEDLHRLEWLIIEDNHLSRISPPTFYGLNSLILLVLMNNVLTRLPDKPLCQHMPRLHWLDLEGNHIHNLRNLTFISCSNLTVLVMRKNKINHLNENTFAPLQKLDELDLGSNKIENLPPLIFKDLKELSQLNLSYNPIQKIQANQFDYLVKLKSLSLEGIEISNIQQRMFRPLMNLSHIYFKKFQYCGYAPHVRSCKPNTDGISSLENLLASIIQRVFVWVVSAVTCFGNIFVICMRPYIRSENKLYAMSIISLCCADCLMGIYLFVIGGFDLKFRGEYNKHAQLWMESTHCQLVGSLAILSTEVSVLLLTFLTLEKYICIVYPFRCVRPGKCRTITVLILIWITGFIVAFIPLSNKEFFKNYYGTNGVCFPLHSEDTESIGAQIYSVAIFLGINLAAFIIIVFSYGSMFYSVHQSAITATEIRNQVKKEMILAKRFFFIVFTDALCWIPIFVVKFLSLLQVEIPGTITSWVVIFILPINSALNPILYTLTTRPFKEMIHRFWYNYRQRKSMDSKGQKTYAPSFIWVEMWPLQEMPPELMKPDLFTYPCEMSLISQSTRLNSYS
SMILES,activation,Potency
COc1cccc(C(=O)NCCSc2c(-c3ccc(F)cc3)[nH]c3ccccc23)c1OC,inactive: -0.933%,
O=c1c(Br)c(N2CCCC2)cnn1-c1ccccc1,inactive: 0.518%,
COc1ccc(-c2cc(C(F)(F)F)c(C#N)c(SCC(=O)Nc3ccc(F)cc3)n2)cc1,,"inconclusive: 35.5 µM [activator, single point]"
Brc1cc(Br)c2ncnc(N3CCCCC3)c2c1,,active: 25.1 µM
CS(=O)(=O)NNC(=O)c1cc2cc3ccccc3nc2s1,,"inconclusive: 20 µM [activator, partial curve]"
COc1ccc(C)cc1NC(=O)c1cc(S(=O)(=O)NC2CCCCCC2)ccc1F,inactive: -2.16%,
N#CC1=C2SCN(Cc3ccccc3)CN2C(=O)CC1c1cccs1 (stereo not drawn),,active: 25.1 µM
CCOC(=O)c1cnc2cc(-c3ccc(Cl)cc3)nn2c1-c1ccccc1,,"inconclusive: 39.8 µM [activator, single point]"
Cc1ccc(NC(=O)Cn2c(=O)n(CCCCCC(=O)NCc3ccc(F)cc3)c(=O)c3sccc32)cc1C,,"inconclusive: 35.5 µM [activator, single point]"
Cc1nc2c(C(=O)NCc3ccccc3)c[nH]n2c(=O)c1Cl,inactive: -1.19%,
COCCn1c(Br)nc2c1c(=O)n(C)c(=O)n2C,,"inconclusive: 31.6 µM [activator, partial curve]"
O=C(CCC1CCCCC1)Nc1c2c(nn1-c1ccc(F)cc1)CS(=O)C2 (stereo not drawn),inactive: 1.29%,
O=C(COc1ccccc1F)OCc1cc(=O)n2nc(-c3cccs3)sc2n1,,"inconclusive: 39.8 µM [activator, single point]"
N#Cc1c(-c2cccs2)nc(SCC(=O)c2ccc(Br)cc2)[nH]c1=O,,"inconclusive: 15.8 µM [activator, partial curve]"
COc1cc(N)c(Cl)cc1C(=O)N[C@@H]1CCN(CCCOc2ccc(F)cc2)C[C@@H]1OC,inactive: 0.821%,
Cc1ccc(NC(=O)Cn2cc(S(=O)(=O)c3ccc(F)cc3)c(=O)c3cc(F)ccc32)cc1,,"inconclusive: 22.4 µM [activator, partial curve]"
Cc1cc2nnc(SCC(=O)NC3CCCCC3)n2c(N)n1,,"inconclusive: 22.4 µM [activator, partial curve]"
CC(Oc1ccc2c3c(c(=O)oc2c1)CCCC3)C(=O)NCC1CCC(C(=O)O)CC1 (stereo not drawn),inactive: 2.69%,
O=C(NCCCN1CCN(c2ccc(F)cc2)CC1)NC12CC3CC(CC(C3)C1)C2,inactive: 1.7%,
CCOc1ccccc1NC(=O)Cn1nnc2sc(-c3ccccc3)cc2c1=O,inactive: 0.283%,
CCOCCCn1c(SCC(=O)Nc2ccc(NC(C)=O)cc2)nc2ccccc2c1=O,,"inconclusive: 39.8 µM [activator, single point]"
Cc1cccn2c(=O)c3cc(C#N)c(=O)n(-c4nnc(SCc5ccccc5F)s4)c3nc12,,"inconclusive: 35.5 µM [activator, single point]"
CC1(C)Cc2c(C#N)c(N3CCOCC3)nc(-c3ccccc3)c2CO1,inactive: 2.95%,

SMILES,activation,Potency
CN1CCN(CC(=O)c2cc(C(C)(C)C)c(O)c(C(C)(C)C)c2)CC1,inactive: -0.118%,
Cc1ccccc1-c1nc2c3ccccc3nc(=S)n2[nH]1,,"inconclusive: 39.8 µM [activator, single point]"
COc1cccc(-n2c(=O)c3sc4ccccc4c3n(CC(=O)Nc3ccccc3C)c2=O)c1,,"inconclusive: 31.6 µM [activator, single point]"
COCCNc1nc2c(S(=O)(=O)c3cc(C)ccc3C)nnn2c2ccccc12,,"inconclusive: 35.5 µM [activator, single point]"
CC(C)c1ccc(OCc2cc(=O)n3c(-c4ccccc4)csc3n2)cc1,,"inconclusive: 31.6 µM [activator, single point]"
COC(=O)c1ccc(CN2CCc3ccccc32)cc1,inactive: -0.0238%,
CCc1ccc(S(=O)(=O)c2nnn3c2nc(NCCNC(C)=O)c2cc(Cl)ccc23)cc1,,"inconclusive: 39.8 µM [activator, single point]"
COCCN(CCOC)c1ncnc2c1c(-c1ccccc1)cn2-c1ccc(C)c(Cl)c1,,"inconclusive: 39.8 µM [activator, single point]"
COc1ccc(CCNc2nc(=S)[nH]c3cc(OC)c(OC)cc23)cc1OC,,"inconclusive: 25.1 µM [activator, single point]"
Cc1cc(-n2c(SCC(=O)Nc3ccc(Br)cc3)nc3n[nH]c(C)c3c2=N)ccc1Cl,,"inconclusive: 31.6 µM [activator, single point]"
CCCOc1ccc(/C(O)=C2/C(=O)C(=O)N(c3ccccn3)C2c2ccc(OC)cc2)cc1C (stereo not drawn),,"inconclusive: 22.4 µM [activator, partial curve]"
Cc1cccc(OCC(=O)Nc2ccc3nc(Nc4cccc(Cl)c4)cc(C)c3c2)c1,,"inconclusive: 17.8 µM [activator, partial curve]"
CCCCn1c(SCc2cc(=O)n3ccsc3n2)nc2cc(C(=O)OC)ccc2c1=O,,"inconclusive: 35.5 µM [activator, single point]"
CCCNC(=O)COC(=O)c1cc2c(=O)n3ccccc3nc2s1,,"inconclusive: 8.91 µM [activator, partial curve]"
C=CCOc1ccc(C2C(C(=O)c3ccco3)=C(O)C(=O)N2c2nnc(C)s2)cc1 (stereo not drawn),,active: 14.1 µM
Cc1cc(/C=C2\NC(=O)NC2=O)c(C)n1-c1cccnc1,inactive: 1.95%,
COc1ccc(C2CC(c3cccs3)=NN2c2ccccc2)cc1 (stereo not drawn),,"inconclusive: 25.1 µM [activator, partial curve]"
Cc1cccc(C(=O)Nc2cccc(OCc3cc(=O)n4c(C)csc4n3)c2)c1,,"inconclusive: 39.8 µM [activator, single point]"
COCCCn1c(SCc2ccc(OC)cc2)nc2cc(OC)c(OC)cc2c1=N,,"inconclusive: 39.8 µM [activator, single point]"
O=C(Nc1c(C(=O)N2CCC(N3CCCCC3)CC2)oc2ccccc12)c1ccc(F)cc1,inactive: 0.625%,
O=C(OCN1C(=O)c2ccccc2C1=O)c1cc(S(=O)(=O)N2CCOCC2)ccc1F,,"inconclusive: 17.8 µM [activator, partial curve]"
CCOC(=O)N1CCN(S(=O)(=O)c2ccc(C(=O)Nc3nc4ccccc4s3)cc2)CC1,,"inconclusive: 35.5 µM [activator, single point]"
COCCNC(=O)CCn1c(=O)c2cc(OC)c(OC)cc2n(CC(=O)Nc2ccccc2OC)c1=O,,"inconclusive: 35.5 µM [activator, partial curve]"

SMILES,activation,Potency
Cc1ccc(-n2nc(C)c3c(C)cc(=O)n(CC(=O)NC(C)C)c32)cc1,,"inconclusive: 39.8 µM [activator, single point]"
O=C1c2ccccc2-c2onc3c(N4CCN(CCO)CC4)cc(N4CCN(C(=O)c5ccco5)CC4)c1c23,inactive: 2.29%,
COc1ccccc1NC(=O)c1c(NC(=O)c2ccco2)sc2c1CCC2,,"inconclusive: 35.5 µM [activator, single point]"
CCOc1ccc(NC(=O)c2c3c(nc4ccccc24)CCC3)cc1,inactive: -0.803%,
NS(=O)(=O)c1ccc(NC(=O)COC(=O)c2cn(-c3ccccc3)nc2-c2ccccc2)cc1,,"inconclusive: 35.5 µM [activator, single point]"
CC(CNc1nc2ccc(Cl)cc2n2cnnc12)c1ccccc1 (stereo not drawn),,"inconclusive: 31.6 µM [activator, single point]"
COc1ccc(CNC(=O)c2nc(S(=O)(=O)Cc3ccccc3)ncc2Cl)cc1,,inactive
O=C(CSc1ccc2nnc(-c3ccccn3)n2n1)Nc1nccs1,,"inconclusive: 28.2 µM [activator, single point]"
CCc1ccc2oc(C(=O)Nc3ccc(S(N)(=O)=O)cc3)c(C)c2c1,,"inconclusive: 15.8 µM [activator, partial curve]"
COc1ccccc1C(=O)Nc1ccc2c(c1)C(=O)NC2=O,,"inconclusive: 39.8 µM [activator, single point]"
COc1cc2[nH]c(=O)n(CCCCCC(=O)N3CCN(c4ccc(Cl)cc4)CC3)c(=O)c2cc1OC,inactive: -0.531%,
COc1ccc(NC(=O)COC(=O)c2cc(SC)ccc2Cl)c(OC)c1,,"inconclusive: 25.1 µM [activator, single point]"
COc1cc(C(=O)Nc2ccccc2OCc2cc(=O)n3c(C)csc3n2)cc(OC)c1OC,,"inconclusive: 35.5 µM [activator, single point]"
Cc1ccc(C)c(N2CCN(C(=O)CN3CCSc4ccccc43)CC2)c1,inactive: -3.09%,
COc1ccc2c(c1)c(=O)oc1cc(OCC(=O)NC3CC3)ccc12,,"inconclusive: 39.8 µM [activator, single point]"
O=C(O)CSc1ccc2ccccc2n1,,"inconclusive: 17.8 µM [activator, partial curve]"
COc1ccc(Cl)cc1NC(=O)c1[nH]c(C)c(C(C)=O)c1C,,"inconclusive: 39.8 µM [activator, single point]"
Fc1cnc(N2CCc3ccccc32)nc1N1CCc2ccccc21,,"inconclusive: 20 µM [activator, partial curve]"
CC(C)c1ccc(Nc2cc(C(=O)NCCCN(C)Cc3ccccc3)c3ccccc3n2)cc1,,"inconclusive: 39.8 µM [activator, single point]"
CC1CCN(C(=O)CN2c3ccc(Br)cc3-c3ccccc3S2(=O)=O)CC1,inactive: 1.2%,
Oc1ccc(O)c(Cc2nc3ccccc3s2)c1,inactive: -2.86%,
CC(C)Cc1nn2c(=O)cc(COC(=O)c3cccc(NC(=O)c4cccs4)c3)nc2s1,,"inconclusive: 31.6 µM [activator, single point]"
